# Whole data set: some 33,000 sequences, median “E-score (-0.5 to 0.5)” near -0.035, cut for the highest 2% near 0.34. The list shows a part of the results.
# Biological target: T1, Mot3 (UniProt P54785)
# T1 sequence: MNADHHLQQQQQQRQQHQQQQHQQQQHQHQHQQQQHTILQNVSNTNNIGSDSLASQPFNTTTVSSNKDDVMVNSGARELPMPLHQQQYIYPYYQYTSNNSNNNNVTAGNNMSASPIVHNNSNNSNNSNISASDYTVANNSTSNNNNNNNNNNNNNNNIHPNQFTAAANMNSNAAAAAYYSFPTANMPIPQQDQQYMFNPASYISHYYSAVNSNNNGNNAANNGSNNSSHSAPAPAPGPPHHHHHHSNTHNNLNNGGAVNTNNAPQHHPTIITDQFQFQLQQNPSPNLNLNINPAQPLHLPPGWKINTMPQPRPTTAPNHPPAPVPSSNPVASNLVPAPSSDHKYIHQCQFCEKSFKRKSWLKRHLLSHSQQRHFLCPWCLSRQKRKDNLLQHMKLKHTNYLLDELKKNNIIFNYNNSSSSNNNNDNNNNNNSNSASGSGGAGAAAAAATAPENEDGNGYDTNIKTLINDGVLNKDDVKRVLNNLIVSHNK
# Test: PBM E-score (8-mer binding enrichment) (E-score (-0.5 to 0.5)); higher = stronger / more preferred TF binding; most listed sequences are background and not binding sites
# Details: protein concentration: 200 nM; construct: GST-full length
# Description: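 Universal 'all 10-mer' protein binding microarrays (Agilent AMADID 015681) probed with GST-tagged S. cerevisiae TFs (full-length or DBD) made by in vitro transcription/translation (PURExpress), about 100-200 nM. Bound TF was detected with fluorescent anti-GST. Each ungapped 8-mer (which stands for itself and its reverse complement) is scored by the PBM enrichment score (E-score), a modified Wilcoxon-Mann-Whitney statistic from -0.5 to +0.5, computed with the Universal PBM Analysis Suite. Scale: above 0.35 generally sequence-specific binding.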
row,Sequence,PBM E-score
1,GGCCTTAC,-0.00846
2,AAAATATG,-0.0851
3,GAAACGAA,-0.00785
4,CGGGACTA,-0.291
5,CTCACGTC,-0.243
6,CGAAGGGC,-0.0984
7,CCCAATTA,-0.0859
8,CCACATGA,0.0141
9,GAAGTGAC,-0.119
10,ACAGGATC,0.234
11,CGTGTGTC,0.147
12,ATGCTTCG,-0.149
13,ACGTTTAG,0.128
14,GCCAATTA,-0.0639
15,TCCACGAA,-0.0319
16,CCCCACGA,-0.107
17,CATGAGGA,-0.0554
18,GACATTAA,0.129
19,ACGCAAAT,0.0286
20,CGTGAAAC,0.0734
21,ACAATGAT,0.0781
22,GTGAGGAA,-0.106
23,CGACTTGC,-0.263
24,TACAGCTA,-0.0705
25,AACGATGC,-0.0992

row,Sequence,PBM E-score
1,CTCAATGC,-0.0468
2,AGTTTCAA,0.0631
3,ATGTTGAA,0.283
4,AAACGAGT,0.131
5,CCGTGCCC,0.304
6,AGCTCCTC,-0.233
7,ATGATTAC,0.252
8,CTTACCAC,0.103
9,GAGGAATC,-0.0751
10,AATACAAC,0.236
11,AATAACCA,0.107
12,TAGATATA,0.06
13,AGCCAGTA,-0.109
14,AAATAAAA,0.142
15,ACATTCAG,0.0154
16,AGACAGCG,-0.186
17,GTCGGTAA,-0.0334
18,TCGGGCAA,-0.133
19,GTTGCGAA,0.0584
20,AGTCGGCC,-0.359
21,GGGTTTAA,0.0728
22,CGCACGGC,-0.0477
23,ATATAAAC,0.194
24,CCTGGGAC,-0.133
25,TGCGCCAA,-0.26

row,Sequence,PBM E-score
1,CGGGGTCA,-0.344
2,GGAAAGAA,0.0908
3,ATGGTATA,-0.014
4,ACTGGGTC,-0.337
5,TGGCGCCA,-0.0648
6,AACCTCTG,-0.176
7,CCCTCCCA,-0.0757
8,AACAAGTA,0.247
9,GTAATAGA,0.225
10,ATTCTAAC,0.0138
11,AAAGAAAA,0.081
12,CGTCTCAA,-0.0928
13,GCTTACGA,-0.0856
14,ATAACATC,0.21
15,ACTACGCC,-0.217
16,CAATAGCA,-0.128
17,CCCCTTAC,-0.0693
18,AATTTACA,0.382
19,AGTATACG,0.112
20,ACCATAGT,-0.184
21,GTGTCTTA,0.204
22,GCTATACA,0.177
23,CACTCCAA,-0.141
24,CAAAAGTC,-0.0843
25,ATAGCTCC,-0.278

row,Sequence,PBM E-score
1,ATGGGAAA,-0.228
2,CGCCATCC,-0.195
3,GTAAACAA,0.283
4,CTTCCGGA,-0.129
5,AAGATCCA,-0.211
6,CTTTCTTA,0.107
7,GTTCAATA,-0.0296
8,TATCCCCA,-0.122
9,GAATAGTC,-0.0927
10,GCGTAATA,0.308
11,AGTACGCG,0.289
12,GACTCGGC,-0.194
13,CCGATTAA,-0.071
14,GCCGTCCC,-0.178
15,CCTCGGAC,-0.337
16,ACTCGACG,0.0488
17,GCCTCCGC,0.0936
18,GTCGCACA,-0.125
19,GCGCCAAA,-0.0398
20,CATTGTCC,0.0141
21,ACATCGTC,0.0483
22,AATACTTC,-0.00018
23,CGTAACCC,-0.0844
24,CGATGAAA,0.0797
25,AGTAAACG,0.112

row,Sequence,PBM E-score
1,AGATGCCT,0.331
2,CAAATCAC,-0.148
3,CATATGGG,-0.138
4,GAAGAGAA,-0.0238
5,ATAGGAGC,0.0425
6,AATTTCGA,0.0443
7,TATCTGAA,-0.103
8,CTCGACCC,-0.0975
9,AAGACGGA,-0.226
10,AAAAACCG,0.0673
11,TGCAGGAA,0.443
12,CCTAATTC,0.0397
13,ATAGGCTA,0.0381
14,CTAGACAC,0.0958
15,GTAGATTA,0.269
16,CAACTTTC,0.0699
17,GAGAGGTA,-0.035
18,CGGTGCAG,-0.0468
19,ACCTCTAC,0.0723
20,GGACCCCA,-0.102
21,GTTAACAA,0.308
22,CTCTTTGC,-0.0152
23,AACAGTTC,-0.0284
24,CTAACACA,0.313
25,CCCGAGCC,-0.0593

row,Sequence,PBM E-score
1,CCACTACC,-0.13
2,CCTCCGAC,-0.227
3,GGAGCGCC,-0.237
4,CTATTATA,0.148
5,ATGTTAGA,0.284
6,TATTGGCA,0.0112
7,CACTAGGA,-0.185
8,AAGCACTA,0.0213
9,AACTACGA,-0.024
10,TCGCCCCA,-0.213
11,GCTCCTTA,-0.0544
12,GTTTTAGA,0.134
13,CCTAAAGG,0.137
14,AGCTGCAG,-0.215
15,ATCACTCG,-0.025
16,CCAGGATC,-0.17
17,AGCAGGTC,-0.0131
18,AGACTGCA,-0.185
19,AACAGGAA,0.416
20,CCCAAATC,-0.19
21,CCAGTCCA,-0.21
22,CATCTGTC,-0.359
23,CCACGGGC,-0.226
24,AGATTAAC,0.0852
25,ATACCAGG,-0.148

row,Sequence,PBM E-score
1,ACCGCAGC,-0.124
2,GTTTAAGA,-0.0499
3,ACGCAGAA,-0.0612
4,ACAATTGA,0.151
5,CCCGCTCG,-0.291
6,CTCTCAGC,-0.147
7,AGTTTGAA,0.0908
8,CCTTACCG,0.0983
9,ATATTGTA,0.0434
10,AGCATGCA,0.0082
11,AGACACCT,-0.0314
12,CACTAATA,0.149
13,CTCAAGAG,-0.187
14,AGCTCTAA,-0.211
15,GTATTGTA,0.297
16,TAGGATGA,-0.156
17,ATAGTTAG,-0.179
18,ATGTAGAC,0.287
19,CATCGATG,0.0376
20,AAGCCAAG,-0.119
21,ATAGTACG,-0.0583
22,ATTGGACA,-0.0877
